Reference: publication PMC12505967, “Inhibition of the assembly of Plasmodium Hsp70-1 and Hsp40 complex blocks DNA replication by destabilizing ribonucleotide reductase subunit-2” (mBio, 2025)
Like-named read-outs stand apart in the source and are kept apart here. No constants are given. Whether binding was seen depends on the method and setting. For part of these data: Binding seen in cells or lysates may run through a third protein. Some results given as binding are weak or reduced against the parent protein; the word gives no strength. Where a sequence is shown, tags or fusion partners need not be part of it.

Chains of the proteins cited; added tags and fusions are not shown.
UniProt Q8IB24: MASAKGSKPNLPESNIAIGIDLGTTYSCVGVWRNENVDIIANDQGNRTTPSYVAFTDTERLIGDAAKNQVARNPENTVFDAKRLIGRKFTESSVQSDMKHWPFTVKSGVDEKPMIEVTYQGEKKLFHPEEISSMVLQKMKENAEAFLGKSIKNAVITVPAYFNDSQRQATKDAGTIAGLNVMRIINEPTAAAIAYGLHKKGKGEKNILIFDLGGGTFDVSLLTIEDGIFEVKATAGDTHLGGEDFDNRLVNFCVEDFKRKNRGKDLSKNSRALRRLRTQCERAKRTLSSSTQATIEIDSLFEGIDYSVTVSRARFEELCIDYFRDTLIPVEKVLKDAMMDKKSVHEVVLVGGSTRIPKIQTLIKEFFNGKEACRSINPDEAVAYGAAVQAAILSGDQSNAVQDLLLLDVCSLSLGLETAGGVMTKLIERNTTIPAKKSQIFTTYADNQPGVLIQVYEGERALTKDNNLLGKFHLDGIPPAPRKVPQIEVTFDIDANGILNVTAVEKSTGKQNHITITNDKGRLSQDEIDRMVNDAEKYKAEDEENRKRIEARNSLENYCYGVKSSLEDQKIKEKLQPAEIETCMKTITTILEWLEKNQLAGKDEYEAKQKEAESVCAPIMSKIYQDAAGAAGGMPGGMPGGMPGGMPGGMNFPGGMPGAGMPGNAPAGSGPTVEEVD

Experiments:
[1] = target: T1, His-tagged PfYdj1 (recombinant, purified) (Plasmodium falciparum 3D7) (UniProt Q8IL88); assay: pull-down; reverse co-purification: purified His-tagged PfYdj1 or Pfydj1^D57N immobilised on Ni-NTA beads, incubated with P. falciparum trophozoite lysate; western blot; only the target purified
T1 sequence: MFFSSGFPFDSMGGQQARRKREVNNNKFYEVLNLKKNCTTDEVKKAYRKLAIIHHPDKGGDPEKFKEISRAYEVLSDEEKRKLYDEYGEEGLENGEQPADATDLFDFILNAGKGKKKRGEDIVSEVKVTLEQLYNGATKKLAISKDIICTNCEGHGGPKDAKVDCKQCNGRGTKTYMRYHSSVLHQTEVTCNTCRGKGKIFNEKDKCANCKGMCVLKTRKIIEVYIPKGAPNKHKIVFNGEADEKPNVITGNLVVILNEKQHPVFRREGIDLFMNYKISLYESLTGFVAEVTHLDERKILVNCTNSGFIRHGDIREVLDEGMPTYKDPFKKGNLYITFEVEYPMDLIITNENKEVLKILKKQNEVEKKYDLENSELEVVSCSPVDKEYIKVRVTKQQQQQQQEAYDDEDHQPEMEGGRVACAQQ

[2] = target: T2, His-tagged full length PfR2 (recombinant, purified) (Plasmodium falciparum 3D7) (UniProt P50650); assay: pull-down; purified His-tagged PfR2 (10 µg) immobilised on Ni-NTA agarose beads, incubated with 200 µg P. falciparum trophozoite lysate (untreated parasites, or parasites grown with 50 µM 116-9e for 24 h) in 20 mM phosphate pH 7.5, 300 mM NaCl, 0.5% NP-40, 4°C overnight; western blot; only the target purified
T2 sequence: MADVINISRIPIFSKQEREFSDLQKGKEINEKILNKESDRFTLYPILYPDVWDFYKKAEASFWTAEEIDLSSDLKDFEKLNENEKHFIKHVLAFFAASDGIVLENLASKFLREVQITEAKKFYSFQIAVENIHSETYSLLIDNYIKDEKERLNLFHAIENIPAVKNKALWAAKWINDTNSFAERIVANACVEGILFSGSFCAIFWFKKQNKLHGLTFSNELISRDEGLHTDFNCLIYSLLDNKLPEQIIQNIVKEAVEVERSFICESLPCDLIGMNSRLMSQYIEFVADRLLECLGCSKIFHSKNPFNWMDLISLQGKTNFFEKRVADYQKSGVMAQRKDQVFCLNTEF

[3] = target: T3, PfYdj1 fused to the GAL4 DNA-binding domain (bait, pGBDUC1/PfYdj1) (Plasmodium falciparum 3D7) (UniProt Q8IL88); assay: condition: only with 116-9e in the triple drop out plates; two-hybrid; as a1, but on triple drop out plates containing 116-9e
T3 sequence: T1 sequence

[4] = target: T3, PfYdj1 fused to the GAL4 DNA-binding domain (bait, pGBDUC1/PfYdj1) (Plasmodium falciparum 3D7); assay: two-hybrid; bait as GAL4 DNA-binding domain fusion (pGBDUC1), prey as GAL4 activation domain fusion (pGADC1), S. cerevisiae PJ69-4A, HIS3 reporter, growth on SC-Leu-Ura-His plates, 30°C, 4 days
[5] = target: T4, PfSis1 fused to the GAL4 DNA-binding domain (bait, pGBDUC1/PfSis1) (Plasmodium falciparum 3D7) (UniProt O96212); assay: as above
T4 sequence: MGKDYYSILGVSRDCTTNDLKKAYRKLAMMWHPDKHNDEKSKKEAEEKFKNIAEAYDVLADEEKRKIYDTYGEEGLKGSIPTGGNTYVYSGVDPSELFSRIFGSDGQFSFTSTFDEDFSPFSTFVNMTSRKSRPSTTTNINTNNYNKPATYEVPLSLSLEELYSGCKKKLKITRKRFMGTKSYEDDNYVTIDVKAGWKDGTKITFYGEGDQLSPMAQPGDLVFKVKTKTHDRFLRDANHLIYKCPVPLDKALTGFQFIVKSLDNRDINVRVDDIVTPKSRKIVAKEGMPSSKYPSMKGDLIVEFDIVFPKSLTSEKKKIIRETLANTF

[6] = target: T3, PfYdj1 fused to the GAL4 DNA-binding domain (bait, pGBDUC1/PfYdj1) (Plasmodium falciparum 3D7); assay: as above; remark: listed apart in the source
[7] = target: T1, His-tagged PfYdj1 (recombinant, purified) (Plasmodium falciparum 3D7); assay: pull-down; reverse co-purification: purified His-tagged PfYdj1 or Pfydj1^D57N immobilised on Ni-NTA beads, incubated with P. falciparum trophozoite lysate; western blot; only the target purified; remark: listed apart in the source

PfHsp70-1 of the parasite (endogenous) (from UniProt Q8IB24 1-677)
binding [1]: binds
binding [2]: binds

PfHsp70-1 fused to the GAL4 activation domain (prey, pGADC1/PfHsp70) (from UniProt Q8IB24 1-677)
binding [3]: no binding
binding [4]: binds

B1: PfR2 fused to the GAL4 activation domain (prey, pGADC1/PfR2) (protein, UniProt P50650 1-349)
chain: T2 sequence
binding [5]: no binding
binding [6]: binds

B2: PfYdj1 of the parasite (endogenous) (protein, UniProt Q8IL88 1-424)
chain: T1 sequence
binding [2]: binds

B3: PfR2 of the parasite (endogenous) (protein, UniProt P50650 1-349)
chain: T2 sequence
binding [7]: binds

B4: PfSis1 of the parasite (endogenous) (protein, UniProt O96212 1-328)
chain: T4 sequence
binding [2]: no binding
